The other results are listed elsewhere or left out. Antibody binding of pooled human sera (four to six donors per pool; dilution not stated) to peptides of the Trypanosoma cruzi antigen TSSA on microarrays. Quantile-normalised fluorescence in arbitrary units, mean of duplicate arrays; higher = more binding. No active / inactive call. The uninfected pools are read here as the healthy donors of the same country. The strongest signals lie near the top of the scale (about 60,000).
Legend:
Experiment in all cases: antibody binding signal (normalised fluorescence) (arbitrary fluorescence units); higher = stronger serum antibody binding to peptide
[1] = tested on: pooled sera of chronic Chagas disease patients, Argentina
Experimental: (§1)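 Microarray of overlapping 15-residue peptides of the four Trypanosoma cruzi TSSA reference variants and 8- to 13-residue peptides of TSSAII 24-62, probed with one serum pool per country.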

[2] = tested on: pooled sera of chronic Chagas disease patients, Bolivia
Experimental: as §1

[3] = tested on: pooled sera of chronic Chagas disease patients, Brazil
Experimental: as §1

[4] = tested on: pooled sera of chronic Chagas disease patients, Colombia
Experimental: as §1

[5] = tested on: pooled sera of chronic Chagas disease patients, Mexico
Experimental: as §1

[6] = tested on: pooled sera of chronic Chagas disease patients, USA
Experimental: as §1

[7] = tested on: pooled sera of uninfected people, Argentina
Experimental: as §1

[8] = tested on: pooled sera of uninfected people, Bolivia
Experimental: as §1

[9] = tested on: pooled sera of uninfected people, Colombia
Experimental: as §1

[10] = tested on: pooled sera of uninfected people, Mexico
Experimental: as §1

[11] = tested on: pooled sera of uninfected people, USA
Experimental: as §1

| Sequence | antibody binding signal [1] | antibody binding signal [2] | antibody binding signal [3] | antibody binding signal [4] | antibody binding signal [5] | antibody binding signal [6] | antibody binding signal [7] | antibody binding signal [8] | antibody binding signal [9] | antibody binding signal [10] | antibody binding signal [11] |
| --- | --- | --- | --- | --- | --- | --- | --- | --- | --- | --- | --- |
| GTENKPATGEAPS | 46800 | 49700 | 49700 | 1210 | 1780 | 41800 | 1020 | 1610 | 164 | 231 | 162 |
| SGTENKPATGEAPSQ | 43300 | 51900 | 51700 | 380 | 507 | 41600 | 1350 | 1190 | 142 | 315 | 176 |
| AAAGEAPSPSGASSG | 453 | 355 | 1250 | 1470 | 1390 | 211 | 153 | 139 | 148 | 166 | 389 |
| STPPSGTENKPA | 53200 | 49500 | 50300 | 368 | 11400 | 46200 | 8250 | 1450 | 909 | 575 | 984 |
| GASSGEAEAS | 95.9 | 121 | 1440 | 119 | 131 | 100 | 214 | 152 | 97.7 | 74.6 | 171 |
| KPATGEAPS | 46900 | 32100 | 46400 | 217 | 207 | 41300 | 875 | 916 | 143 | 189 | 147 |
| STSSTPPSG | 279 | 238 | 224 | 367 | 161 | 137 | 183 | 146 | 99.2 | 148 | 103 |
| ATGEAPSQP | 19000 | 31900 | 37800 | 176 | 367 | 14500 | 188 | 158 | 70.9 | 125 | 75.2 |
| ENKPATGEA | 34700 | 28800 | 31800 | 193 | 633 | 18900 | 229 | 712 | 102 | 428 | 360 |
| PSQPGASSGE | 536 | 287 | 8620 | 95.5 | 308 | 164 | 80.4 | 115 | 111 | 555 | 90.5 |
| TANGGSTSSTPPS | 143 | 231 | 362 | 199 | 350 | 152 | 144 | 177 | 107 | 134 | 217 |

— the supplement of paper PMC10441789
